Measurements taken from patent US11178870B2 (priority 2017, dated 2021).

How the values were obtained:
Magnaporthe grisea = format: in vivo; details: class of control value, Table 7
Phytophthora infestans = format: in vivo; details: class of control value, Table 7
[1] = system: Colletotrichum orbiculare; details: 250 ppm spray, 2.5 ml/pot; investigated 6 to 10 days after inoculation

Row | Compound | Test A control value (blast on rice) (Magnaporthe grisea) | Test F control value (late blight on tomato) (Phytophthora infestans) | Test H control value (anthracnose on cucumber) [1]
1 | CCn1c(-c2ccccc2F)c(-n2cc(F)cn2)cc(Br)c1=O [Compound 384] | H (H shows the control value more than 50%) | L (L shows the control value of 50% or less) | H (H shows the control value more than 50%)
2 | CCn1c(-c2c(F)cccc2F)c(-c2sc(Br)cc2C)cc(Cl)c1=O [Compound 387] | H (H shows the control value more than 50%) | L (L shows the control value of 50% or less) | L (L shows the control value of 50% or less)
